Measurements from article PMC4077696 (PLoS Biology, 2014).
Where a name gives a salt, the structure may show the parent alone.

What was measured:
[1] = tested on: P. falciparum 3D7; test: Light microscopy of Giemsa-stained parasites after drug treatment at early rings; type: cell-based, Plasmodium falciparum; conditions: for Food vacuole swelling: 916, 024, 025 15 µM, E-64 10 µM
Description: As greater than 50% of parasites could not recover from this treatment condition (refer to Figure 4B), the majority of parasites with this appearance were dying or dead. […] (Figure 4D, arrow). […] Collectively, the toxicity profile seen in the above experiments defines the window of parasite death as between 20 and 30 h, consistent with perturbed protein export and erythrocyte remodeling.

[2] = tested on: P. falciparum 3D7; test: Parasite growth assay, dose-response, parasitemia at 72 h by flow cytometry; type: cell-based, Plasmodium falciparum; conditions: for EC50: Plasmodium falciparum, 3D7, 72 h, early rings treated 72 h, flow cytometry, read-out: EC50 parasite viability; for Effect on parasite viability, in words: concentrations up to 20 µM, 72 h
Description: Because PEXEL processing in parasites was unaffected by 024 and 025 treatment, even at 50 µM (Figure 3C), we conclude that the analogs impart toxicity at high concentrations independent of PMV.
In the case of dose-response curves, medium was kept for the entire experiment; in the case of curves in Figure 4B,C, medium was replaced with inhibitor-free medium at 48 h postinfection. Parasitaemia was always determined at 72 h by flow cytometry. To knock down PMV, GlcN (Sigma) was added to trophozoites and drug curves initiated by adding compound at subsequent rings (24 h) for 24–72 h.

CC(C)C[C@H](NC(=O)[C@H]1O[C@@H]1C(=O)O)C(=O)NCCCCN=C(N)N [E-64, reference compound]
Food vacuole swelling [1]: swollen food vacuoles

CC(C)C[C@H](NC(=O)[C@@H](NC(=O)[C@H](CCCCN)NS(=O)(=O)Cc1ccccc1)C(C)C)[C@@H](O)CC(=O)NCCc1ccccc1 [compound 024, PhCH2SO2-Lys(NH2)-Val-Sta-NH(CH2)2Ph .TFA]
EC50 [2]: 66 µM | Effect on parasite viability, in words [2]: negligible effect | Food vacuole swelling [1]: did not cause swelling | Parasite development after 32 h of treatment ([1]; early rings, 15 µM): no effect on development

CC[C@H](C)[C@H](NC(=O)[C@@H](NC(=O)[C@H](CCCNC(=N)N)NS(=O)(=O)Cc1ccccc1)C(C)C)[C@@H](O)CC(=O)NCCc1ccccc1 [compound 025, PhCH2SO2Arg-Val-AHMHpA-NH(CH2)2Ph . TFA]
EC50 [2]: 30 µM | Effect on parasite viability, in words [2]: negligible effect | Food vacuole swelling [1]: did not cause swelling | Parasite development after 32 h of treatment ([1]; early rings, 15 µM): no effect on development

CC(C)C[C@H](NC(=O)[C@@H](NC(=O)[C@H](CCCNC(=N)N)NS(=O)(=O)Cc1ccccc1)C(C)C)[C@@H](O)CC(=O)NCCc1ccccc1 [compound 916, PhCH2SO2-Arg(NH2)-Val-Sta-NH(CH2)2Ph .TFA]
EC50 [2]: 2.5 to 5 µM | Effect on parasite viability, in words [2]: completely killed parasites | Food vacuole swelling [1]: did not cause swelling | Parasite development after 32 h of treatment ([1]; early rings, 15 µM): blockage in the ring-trophozoite transition | Parasite morphology after 16 h of treatment ([1]; early rings, 15 µM): normal ring-stage morphology
